# In all, about 390,000 compounds went through this assay and about 2,200 (0.56%) were called active. Inconclusive means that the source gave no clear call. Such entries were picked first, then a sample of the others. Calls follow the shape of the dose curve; as a rule, active = well fitted inhibition curve with a large enough effect; inconclusive = small, poorly fitted or top-dose-only effect; inactive = no such curve, though single readings can be large or run the other way. Potencies of inconclusive entries are doubtful fits and often do not repeat.
# Target: Chromobox protein homolog 1 (Homo sapiens) (UniProt P83916)
# Assay: HTS for Inhibitors of HP1-beta Chromodomain Interactions with Methylated Histone Tails; also: nearly all actives have a fitted effect of over 70% in size
# Conditions: AlphaScreen HP1-beta / biotin-H3K9me3 peptide binding; series mostly up to 114 µM; activity change, negative = inhibition: at the top concentration
# How it was run: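 AlphaScreen: HP1-beta (50 nM) preformed 30 min with biotin-H3(1-18)K9me3 peptide (50 nM) in PBS pH 7.4, 0.01% Tween-20. Compound added for 30 min at RT, then streptavidin donor/nickel chelate acceptor beads (10 ug/mL) for 30 min.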
# Potency is read from the fitted curve at half-maximal effect; tags tell the direction and shape of the fitted curve.
# UniProt P83916, sequence (P83916 whole entry, looked up): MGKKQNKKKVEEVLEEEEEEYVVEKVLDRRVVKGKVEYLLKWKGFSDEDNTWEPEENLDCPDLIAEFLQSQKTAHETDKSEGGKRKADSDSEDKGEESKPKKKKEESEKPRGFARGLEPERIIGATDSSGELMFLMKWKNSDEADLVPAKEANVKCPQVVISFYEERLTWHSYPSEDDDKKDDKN
Structure (SMILES),Potency,"activity change, negative = inhibition"
C#CCOc1ccccc1CNC1CCN(Cc2ccccc2)CC1,"inconclusive: 15.8 µM [inhibitor, full curve, poor fit]",
O=C(c1cccc(-c2ccco2)c1)N1CCCC(N2CCN(c3ccc(F)cc3)CC2)C1 (configuration not stated),"inconclusive: 56.2 µM [inhibitor, single point]",
CCOc1ccccc1N(CC(=O)NC1CCCCC1)C(=O)c1nsc(Cl)c1Cl,"inconclusive: 28.2 µM [inhibitor, single point]",
CC1=NN(c2nc(-c3ccc(C)cc3)cs2)C(=O)C1N=Nc1cccc(C)c1 (configuration not stated),"inconclusive: 10 µM [inhibitor, full curve]",
CCOC(=O)c1cccc(NC(=O)Nc2cc(OC)ccc2OC)c1,"inconclusive: 25.1 µM [inhibitor, partial curve, poor fit]",
Oc1cccc(C(=S)N2CCC(Cc3ccccc3)CC2)c1,"inconclusive: 10 µM [inhibitor, full curve, poor fit]",
N#C/C(=N\Nc1cccc(Cl)c1)C(=O)c1ccccc1,"inconclusive: 44.7 µM [inhibitor, partial curve, poor fit]",
COc1ccccc1-c1nc(C#N)c(N2CCc3ccccc3C2)o1,"inconclusive: 14.1 µM [inhibitor, partial curve, poor fit]",
COc1cccc(-c2nc(-c3ccccn3)no2)c1OC,"inconclusive: 3.16 µM [inhibitor, single point]",
O=C(NNC(=S)Nc1ccc(Br)cc1)c1ccc(N2CCOCC2)c([N+](=O)[O-])c1,"inconclusive: 17.8 µM [inhibitor, full curve]",
COc1cc(O)c(C(CC(=O)N2CCCC(C)C2)c2ccc(N(C)C)cc2)c(OC)c1 (configuration not stated),"inconclusive: 44.7 µM [inhibitor, partial curve]",
CC(C)CNS(=O)(=O)c1ccc(CCC(=O)Nc2ccc3c(c2)OCO3)cc1,,inactive: 29.8%
Cc1cn2c(=O)cc(COC(=O)C(C)Oc3ccccc3)nc2s1 (configuration not stated),"inconclusive: 89.1 µM [inhibitor, partial curve, poor fit]",
Cc1ccc(S(=O)(=O)N(C)C)cc1NC(=O)COC(=O)/C=C/c1ccc(F)cc1,,inactive: 9.37%
CCCCN=C1NN=C(c2cc3ccccc3o2)CS1,"inconclusive: 14.1 µM [inhibitor, partial curve, poor fit]",
NS(=O)(=O)c1cccc(NC(=O)c2cccc(-c3ccc(O)cc3)c2)c1,"inconclusive: 89.1 µM [inhibitor, partial curve, poor fit]",
O=Cc1cc(N=Nc2ccccc2Cl)ccc1O,"inconclusive: 11.2 µM [inhibitor, full curve, poor fit]",
CSc1nnc(SCc2nc3sc(C(=O)O)c(C)c3c(=O)[nH]2)s1,active: 50.1 µM,
CN(Cc1ccccc1)C1=CC(=[N+]2CCCC2)CC(C)(C)C1,"inconclusive: 79.4 µM [inhibitor, single point]",
COc1cc(OC)c(OC)cc1CN1CCN(S(=O)(=O)c2ccc(F)cc2)CC1,"inconclusive: 15.8 µM [inhibitor, full curve, poor fit]",
O=C(C[C@@H]1C/C=C\CC[C@H](Cc2ccc(F)cc2)C(=O)OC[C@@H]2CCCN2C1=O)N[C@H](CO)Cc1ccccc1,,inactive: 15.7%
O=C(/C=C/c1ccc(Cl)cc1Cl)N1CCN(c2ccccc2[N+](=O)[O-])CC1,"inconclusive: 39.8 µM [inhibitor, partial curve]",
COc1ccc(S(=O)(=O)N2CCC(C(=O)NCc3cccnc3)CC2)cc1OC,,inactive: 20.2%

Structure (SMILES),Potency,"activity change, negative = inhibition"
CCOC(=O)Nc1ccc(N2CCOCC2)c(S(=O)(=O)N2CCOCC2)c1,,inactive: 12.2%
Nc1ccccc1C(=O)NNc1ncc(C(F)(F)F)cc1Cl,,inactive: 40.5%
COc1ccc(N2CCN(C(CNC(=O)COc3ccccc3)c3ccco3)CC2)cc1 (configuration not stated),"inconclusive: 70.8 µM [inhibitor, partial curve]",
O=C1C=CC(=O)N1c1ccc(Nc2ccccc2)cc1,"inconclusive: 35.5 µM [inhibitor, single point]",
CC(C)CC(=O)N1CCN(Cc2cccc(Cl)c2)CC1,"inconclusive: 50.1 µM [inhibitor, partial curve, poor fit]",
Cc1ccc(S(=O)(=O)N2CCN(C(=O)CC(C)C)CC2)cc1,,inactive: 27.4%
N#Cc1nc(Cc2ccccc2)oc1NCCc1ccccc1,"inconclusive: 44.7 µM [inhibitor, partial curve]",
CCOC(=O)N1CCN(C(=O)C2CCN(Cc3ccc(OC)cc3OC)CC2)CC1,"inconclusive: 15.8 µM [inhibitor, full curve, poor fit]",
CC1(c2ccccc2)CC(C)(C)N(C(=O)c2ccccc2Cl)c2ccccc21 (configuration not stated),,inactive: 18.4%
O=C(NCCCCc1ccccc1)C1CC(c2cc(C(F)(F)F)cc(C(F)(F)F)c2)=NO1 (configuration not stated),,inactive: 30.4%
CCOC(=O)c1c2c(n(-c3ccc(OC)cc3)c1C)C(=O)C(=O)c1ccccc1-2,"inconclusive: 8.91 µM [inhibitor, full curve, poor fit]",
C(=N\Nc1ccccc1)/c1ccc(N2CCOCC2)cc1,,inactive: 1.61%
COc1ccc(CN/C(C)=C(/C#N)C(N)=O)cc1OC,"inconclusive: 39.8 µM [inhibitor, single point]",
O=C(Nc1ccccn1)c1ccc2ccccc2c1O,,inactive: 56.7%
COc1cc(/C=N/NC(=O)CCn2cnc(-c3ccccc3)c2-c2ccccc2)ccc1O,"inconclusive: 50.1 µM [inhibitor, partial curve]",
CCOC(=O)C1CCCN(c2ncnc3c2nnn3C)C1 (configuration not stated),,inactive: 51.1%
COC(=O)c1[nH]c2ccc(F)cc2c1NS(=O)(=O)c1ccc(OC)cc1,,inactive: 35.9%
Cc1nc2ccn(Cc3cccnc3)c(=O)c2cc1C(=O)Nc1ccc(F)cc1F,,inactive: 42.4%
COc1ccc2c(c1)c1nc3n(c(=O)c1n2CC(=O)Nc1ccccc1)CCCS3,,inactive: 31.6%
O=C(CSc1nnc(-c2ccco2)n1CC1CCCO1)c1ccc(F)cc1 (configuration not stated),"inconclusive: 8.91 µM [inhibitor, single point]",
CN(CCCOc1ccccc1F)Cc1ccccc1,"inconclusive: 14.1 µM [inhibitor, full curve, poor fit]",
COc1cccc(C(=O)N2CCN(Cc3cc(Br)ccc3OC)CC2)c1,"inconclusive: 3.98 µM [inhibitor, full curve, poor fit]",
O=[N+]([O-])c1ccc(C(=S)N2CCN(c3ccc(F)cc3)CC2)cc1,"inconclusive: 12.6 µM [inhibitor, full curve]",

Structure (SMILES),Potency,"activity change, negative = inhibition"
Cc1ccc(NNS(=O)(=O)c2ccc(C)cc2)cc1,"inconclusive: 3.98 µM [inhibitor, full curve, poor fit]",
COC(=O)c1c(NC(=S)NN2CCN(C)CC2)sc2c1CCC(C)C2 (configuration not stated),"inconclusive: 56.2 µM [inhibitor, partial curve, poor fit]",
Oc1ccccc1-c1nc2ccccc2nc1-c1ccccc1,"inconclusive: 50.1 µM [inhibitor, partial curve]",
Cc1[nH]c2ccccc2c1/C=N/Nc1nc2ccccc2[nH]1,"inconclusive: 39.8 µM [inhibitor, partial curve]",
CC(C)(C)OC(=O)N1CCC(c2c(C(=O)NCc3ccco3)cnn2-c2ccccc2Cl)CC1,,inactive: 19.8%
O=C(CN1C(=O)NC(c2ccccc2)(c2ccccc2)C1=O)NC1CCCCC1,,inactive: 30.6%
Cc1cc(NC(=O)C23CC4CC(C2)CC(n2cnc([N+](=O)[O-])n2)(C4)C3)no1,"inconclusive: 89.1 µM [inhibitor, single point]",
CN1C/C(=C/c2cccs2)C(=O)/C(=C\c2cccs2)C1,"inconclusive: 35.5 µM [inhibitor, partial curve]",
CNC(=O)C(C#N)(Cc1cc(C(C)=O)ccc1OC)Cc1cc(C(C)=O)ccc1OC,,inactive: 6.57%
COc1ccc(/C=N/NC(=O)c2ccncc2)cc1CN1CCCc2ccccc21,"inconclusive: 50.1 µM [inhibitor, single point]",
CCNC(=O)CSc1nnc(-c2cccc(S(=O)(=O)N(CC)CC)c2)n1CCc1ccccc1,"inconclusive: 39.8 µM [inhibitor, single point]",
C#CCOCCOCCOCCNc1nc(N2CCN(C(=O)CCCCCCCCCCNC(=O)Cn3cc(C[C@@H](C)O)nn3)CC2)nc(N2CCN(C(=O)CCCCCCCCCCNC(=O)[C@H](CCCCN)n3cc(C[C@@H](C)CC)nn3)CC2)n1,"inconclusive: 44.7 µM [inhibitor, partial curve, poor fit]",
O=C1N/C(=C/c2ccco2)C(=O)N1Cc1ccccc1F,"inconclusive: 70.8 µM [inhibitor, partial curve]",
O=C(Nc1ccc(N2CCOCC2)c2nonc12)C1CCCC1,"inconclusive: 28.2 µM [inhibitor, single point]",
CC1CCCCN1C(=O)c1cc2c(=O)n3ccccc3nc2s1 (configuration not stated),"inconclusive: 89.1 µM [inhibitor, partial curve, poor fit]",
O=C(c1ccc(CNS(=O)(=O)c2ccc(Br)cc2)cc1)N1CCCC1,,inactive: 24.3%
O=C(CSc1n[nH]c(-c2ccccc2O)n1)NC1CCCCC1,"inconclusive: 89.1 µM [inhibitor, single point]",
CCN1C(=O)C(CC(=O)Nc2ccc(OC)cc2)N(CCc2ccccc2F)C1=S (configuration not stated),"inconclusive: 31.6 µM [inhibitor, single point]",
Oc1c(C=Nc2cccc3nsnc23)ccc2ccccc12,"inconclusive: 11.2 µM [inhibitor, full curve]",
CN(C(=O)CSc1nnc(Cc2cccs2)n1C1CC1)C1CCS(=O)(=O)C1 (configuration not stated),,inactive: 16.8%
CCOc1cc(-c2ccc(OC(=O)c3ccc(C)cc3)c(OC)c2)cc(=O)c2c(C)oc(C)c12,,inactive: 4.5%

# — PubChem BioAssay AID540317 (National Center for Advancing Translational Sciences (NCATS), 2011)
